PubChem BioAssay AID485290 (National Center for Advancing Translational Sciences (NCATS), 2010)
The campaign covered roughly 350,000 compounds. About 990 (0.28%) were called active. This list was built around the results that the source calls inconclusive (neither active nor inactive); the mix of calls is not that of the screen. Calls follow the shape of the dose curve; as a rule, active = well fitted inhibition curve with a large enough effect; inconclusive = small, poorly fitted or top-dose-only effect; inactive = no such curve, though single readings can be large or run the other way. Potencies of inconclusive entries are doubtful fits and often do not repeat. Where a structure was tested more than once in an assay, its records may differ in their call.

biological target: Tyrosyl-DNA phosphodiesterase 1 (Homo sapiens) (UniProt Q9NUW8); assay: qHTS Assay for Inhibitors of Tyrosyl-DNA Phosphodiesterase (TDP1); details: recombinant TDP1, AlphaScreen DNA substrate cleavage; series mostly up to 130 µM; also: nearly all actives have a fitted effect of over 40% in size
Chain of UniProt Q9NUW8 (Q9NUW8 whole entry, looked up): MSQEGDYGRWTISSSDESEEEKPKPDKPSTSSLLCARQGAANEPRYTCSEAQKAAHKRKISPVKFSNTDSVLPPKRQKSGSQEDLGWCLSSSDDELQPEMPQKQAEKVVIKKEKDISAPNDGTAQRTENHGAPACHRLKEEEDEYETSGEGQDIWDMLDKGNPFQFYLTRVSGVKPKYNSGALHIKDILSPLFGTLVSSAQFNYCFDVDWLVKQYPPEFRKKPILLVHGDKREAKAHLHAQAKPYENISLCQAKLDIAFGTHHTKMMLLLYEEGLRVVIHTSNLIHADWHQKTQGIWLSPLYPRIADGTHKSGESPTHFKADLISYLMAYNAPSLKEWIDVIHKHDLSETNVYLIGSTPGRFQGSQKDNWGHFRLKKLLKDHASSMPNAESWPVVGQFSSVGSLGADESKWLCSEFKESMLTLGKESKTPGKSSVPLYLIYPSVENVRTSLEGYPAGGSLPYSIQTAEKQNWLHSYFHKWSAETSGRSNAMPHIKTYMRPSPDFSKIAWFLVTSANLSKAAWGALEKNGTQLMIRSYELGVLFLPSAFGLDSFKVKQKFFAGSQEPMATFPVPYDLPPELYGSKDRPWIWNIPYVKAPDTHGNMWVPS
Procedure, shortened: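 AlphaScreen read-out: signal falls as enzyme removes the 3' tyrosine-FITC from a 5'-biotinylated DNA oligo (15 nM, 5 min, RT). Enzyme was E. coli-made recombinant Tdp1 at 1 nM, exposed to compound for 15 min beforehand; beads 10 ug/ml, 10 min.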
Potency is read from the fitted curve at half-maximal effect; tags tell the direction and shape of the fitted curve.

Question: `Cc1ccc(S(=O)(=O)N2CCCCC2)cc1C(=O)Nc1ccc(S(=O)(=O)Nc2ncccn2)cc1` was tested. Which Potency did it give?
Answer: active: 31.6 µM

Question: Which Potency does the source give for `CN1CCc2c(sc3c2c(=O)n(-c2ccccc2)c2n[nH]c(=S)n32)C1` here?
Answer: inconclusive: 89.1 µM [inhibitor, partial curve, poor fit]

Question: How did the Potency turn out when `O=C(O)[C@@H](O)[C@@H](O)[C@H](O)[C@H](O)CO` was run?
Answer: active: 7.94 µM

Question: `COc1cccc(-c2cn3c(n2)sc2cc(C(=O)NCCc4ccccc4)ccc23)c1` was tested. Which Potency did it give?
Answer: inactive

Question: `O=[N+]([O-])c1ccc(OCCN2CCNCC2)cc1` was tested. Which Potency did it give?
Answer: inconclusive: 1 µM [inhibitor, full curve]

Question: With `COc1ccccc1C1CC(=O)Oc2cc(C)c(Cl)cc21` (centres undefined) as the compound, how does the Potency read?
Answer: inconclusive: 35.5 µM [inhibitor, single point]

Question: `CCc1nn2c(=O)cc(COc3ccc(/C=C4\C(=N)N5N=C(C)SC5=NC4=O)cc3)nc2s1` was tested. Which Potency did it give?
Answer: inconclusive: 11.2 µM [inhibitor, full curve]

Question: How did the Potency turn out when `COc1ccc2nc(SCc3ccccc3)nc(C)c2c1` was run?
Answer: inconclusive: 31.6 µM [inhibitor, single point]

Question: For `Cc1[nH][nH]c(=O)c1C(c1ccc(-c2ccc(Cl)c(C(=O)O)c2)o1)c1c(C)[nH][nH]c1=O`, which Potency is on record?
Answer: inconclusive: 79.4 µM [inhibitor, partial curve]

Question: `CC(=O)Nc1sc(NC(=O)c2ccc([N+](=O)[O-])cc2)nc1-c1cccs1` was tested. Which Potency did it give?
Answer: inactive

Question: For `Cc1ccccc1N=C1NC(=O)/C(=C/c2cccn2-c2cccc(C(=O)O)c2)S1`, which Potency is on record?
Answer: inconclusive: 10 µM [inhibitor, full curve]

Question: With `CC(C)C(C(=O)O)N1C(=O)/C(=C/C=C/c2ccco2)SC1=S` (centres undefined) as the compound, how does the Potency read?
Answer: inconclusive: 0.794 µM [inhibitor, full curve, poor fit]

Question: Which Potency does the source give for `CCOC(=O)CC(=O)CSc1nc(CC)c(C)cc1C#N` here?
Answer: active: 70.8 µM

Question: How did the Potency turn out when `COc1ccc(S(=O)(=O)c2nnn(-c3ccc(C)c(Cl)c3)c2C)cc1` was run?
Answer: inactive

Question: `O=C(CNC(=O)c1ccc(F)cc1)N/N=C/c1ccc(O)c([N+](=O)[O-])c1` was tested. Which Potency did it give?
Answer: inconclusive: 89.1 µM [inhibitor, single point]

Question: With `COCCn1c(N)c(C(=O)NCc2cccs2)c2nc3ccccc3nc21` as the compound, how does the Potency read?
Answer: inconclusive: 10 µM [inhibitor, partial curve, poor fit]

Question: For `CN(CCOC(=O)/C=C/c1ccco1)Cc1ccccc1`, which Potency is on record?
Answer: active: 10 µM

Question: With `Fc1ccc(CSc2nnc(-c3cc4c(s3)-c3ccccc3CC4)o2)cc1` as the compound, how does the Potency read?
Answer: inconclusive: 14.1 µM [inhibitor, partial curve]

Question: `NC(=O)c1sc2nc(-c3ccco3)ccc2c1N` was tested. Which Potency did it give?
Answer: inconclusive: 3.16 µM [inhibitor, full curve]
